In the supplement of paper PMC12217912:
This is one part of the list. The full chains were built here from the parent and the listed change. Values near 0.05 are background.

B1: TEV protease; numbered along this chain (parent)
chain: MGESLFKGPRDYNPISSSICHLTNESDGHTTSLYGIGFGPFIITNKHLFRRNNGTLVVQSLHGVFKVKDTTTLQQHLVDGRDMIIIRMPKDFPPFPQKLKFREPQREERICLVTTNFQTKSMSSMVSDTSCTFPSGDGIFWKHWIQTKDGQCGSPLVSTRDGFIVGIHSASNFTNTNNYFTSVPKNFMELLTNQEAQQWVSGWRLNADSVLWGGHKVFMVKPEEPFQPVKEATQL

Variants of: B1
Experiment: raw area under fraction-flipped curve 0-4 h after induction (AUC4h, not background-subtracted), DNA-recorder readout of cleavage of the substrate (dimensionless); higher = more cleavage of the substrate by the protease variant
Conditions: temperature: 34 °C; time window: 0-4 h after rhamnose induction
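Note: Bxb1 expression induced with 0.2% (w/v) L-rhamnose at OD600 near 0.5, cultures sampled hourly, flipped fraction per protease–substrate barcode pair counted by paired-end Illumina sequencing.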

Row | Variant | area with substrate ENLYFCS | area with substrate ENLYFFS | area with substrate ENLYFIS | area with substrate ENLYFMS | area with substrate ENLYFNS | area with substrate ENLYFPS | area with substrate ENLYFRS | area with substrate ENLYFSS | area with substrate ENLYFDS | area with substrate ENLYFES | area with substrate ENLYFGS | area with substrate ENLYFHS | area with substrate ENLYFVS | area with substrate ENLYFWS | area with substrate ENLYFYS | area with substrate ENLYFAS | area with substrate ENLYFLS | area with substrate ENLYFKS | area with substrate ENLYFTS
1 | D79N | 0.0561 | 0.0318 | 0.0503 | 0.0534 | 0.0658 | 0.0599 | 0.0574 | 0.0522 | – | – | – | – | – | – | – | – | – | – | –
2 | T115M | 0.0452 | 0.0593 | 0.0576 | – | 0.0604 | 0.0611 | 0.0542 | – | 0.0688 | 0.0692 | 0.0566 | 0.0898 | 0.053 | 0.046 | 0.053 | – | – | – | –
3 | T115G | 0.0511 | 0.0681 | 0.0623 | – | – | – | – | – | – | 0.0438 | 0.0232 | 0.0595 | 0.0536 | – | – | – | – | – | –
4 | A232Y | 0.0671 | 0.055 | 0.0384 | 0.0618 | 0.0609 | 0.0563 | 0.0476 | – | – | 0.0808 | 0.032 | 0.0529 | – | – | 0.0784 | 0.0574 | 0.0636 | – | –
5 | A232R | 0.0596 | – | 0.0572 | 0.0769 | 0.0651 | 0.0591 | 0.0638 | – | 0.0663 | 0.0632 | – | 0.0556 | – | – | – | 0.0586 | 0.0645 | 0.003 | 0.0594
6 | A232Q | 0.0535 | 0.0271 | 0.0392 | 0.0915 | 0.0597 | 0.0773 | 0.0647 | 0.0679 | 0.0573 | 0.0528 | – | 0.0567 | – | 0.0618 | 0.0635 | 0.0585 | – | 0.0727 | 0.0588
7 | A232E | – | 0.0612 | 0.0564 | 0.0612 | 0.0603 | 0.0616 | 0.0746 | 0.0607 | 0.05 | 0.0882 | – | 0.0608 | 0.0844 | 0.0516 | – | 0.0657 | 0.0789 | 0.0395 | –
8 | A232L | 0.0525 | 0.0776 | 0.0516 | 0.0618 | 0.0585 | 0.0374 | 0.0595 | 0.0766 | – | 0.0631 | 0.0545 | – | – | – | 0.0702 | 0.0503 | 0.0481 | – | –
9 | G150N | 0.0567 | 0.0608 | 0.053 | 0.0597 | 0.0325 | 0.0568 | 0.0512 | – | – | 0.0594 | 0.0738 | – | 0.0519 | 0.0547 | 0.0519 | – | – | 0.0592 | 0.0637
10 | D11E | 0.0751 | 0.0779 | 0.0529 | 0.0689 | 0.0711 | 0.0627 | 0.0471 | 0.0656 | – | 0.0517 | 0.0544 | 0.0549 | 0.05 | 0.0608 | 0.06 | – | – | 0.0781 | 0.0657
11 | L48Y | 0.0673 | 0.0805 | 0.0536 | 0.0635 | 0.0792 | 0.0562 | – | – | – | – | 0.0621 | – | – | – | – | – | – | – | 0.0621
12 | H21F | 0.065 | – | 0.0575 | 0.0595 | 0.0576 | 0.0469 | – | 0.0575 | – | 0.0598 | 0.06 | 0.0629 | 0.0614 | – | – | – | 0.0515 | 0.0594 | 0.0629
13 | H21E | 0.0649 | 0.0657 | 0.0544 | 0.0659 | – | 0.0552 | 0.0531 | – | 0.0668 | 0.0616 | – | 0.06 | 0.0595 | 0.0523 | 0.0589 | – | 0.0561 | 0.0697 | 0.0576
14 | W141S | 0.052 | 0.0534 | 0.0522 | 0.0644 | 0.0422 | 0.0503 | 0.0511 | – | – | 0.0506 | 0.0591 | 0.0545 | – | 0.0561 | – | – | – | – | 0.0512
15 | W141H | 0.0415 | 0.0718 | 0.046 | 0.0695 | – | 0.0727 | 0.0509 | 0.0591 | 0.0597 | 0.0473 | 0.0158 | – | – | 0.0295 | – | – | – | 0.0537 | –
16 | M83F | 0.0595 | – | – | 0.0668 | – | 0.0566 | 0.0826 | 0.0517 | – | – | – | – | – | 0.0795 | – | – | 0.0646 | 0.0681 | 0.0701
17 | P228F | 0.0608 | 0.0659 | 0.0604 | 0.0553 | 0.0698 | 0.062 | 0.0626 | – | 0.0548 | 0.0494 | 0.0599 | – | – | 0.0631 | 0.0671 | 0.0424 | 0.0607 | – | 0.051
18 | P40W | 0.0746 | 0.0622 | 0.0559 | 0.0643 | – | 0.0572 | 0.0653 | – | 0.055 | 0.0653 | – | – | – | – | – | – | 0.0383 | 0.0659 | –
19 | K66S | 0.0692 | 0.0574 | 0.0532 | 0.068 | – | 0.0656 | – | – | – | 0.072 | 0.0636 | – | – | – | – | – | – | 0.0555 | –
20 | F163H | 0.0549 | – | – | 0.0816 | – | 0.0256 | – | – | – | 0.0538 | – | 0.0488 | 0.0552 | – | – | – | – | – | –
21 | T23G | 0.0482 | 0.0676 | 0.0602 | 0.0347 | 0.0929 | 0.0505 | 0.0674 | 0.0502 | 0.0579 | 0.0673 | 0.0477 | 0.0523 | 0.0609 | 0.0584 | 0.0628 | – | 0.0503 | 0.0523 | 0.0415
22 | R106G | 0.0605 | 0.0715 | 0.0514 | 0.0536 | 0.0595 | 0.0664 | 0.0715 | – | – | – | – | – | – | 0.0405 | 0.0525 | – | 0.0567 | – | –
23 | W144I | 0.0562 | 0.0398 | 0.063 | 0.0698 | 0.0602 | 0.0672 | – | – | – | – | 0.0669 | – | – | 0.0525 | 0.0551 | – | – | 0.0573 | 0.0573
24 | N45L | 0.0577 | 0.0695 | 0.0526 | 0.0718 | 0.104 | 0.0569 | 0.0551 | 0.0531 | – | 0.0633 | – | – | 0.058 | – | – | – | 0.072 | 0.0443 | 0.0693
25 | N45W | 0.0681 | 0.0674 | 0.059 | 0.0596 | 0.0659 | 0.055 | 0.0608 | 0.0513 | 0.055 | 0.0659 | 0.0719 | – | 0.035 | 0.0565 | 0.0557 | – | – | 0.0514 | 0.0595
26 | G138H | 0.0545 | – | 0.0619 | – | – | 0.0485 | – | – | 0.0439 | – | – | – | – | – | 0.0616 | – | – | 0.0412 | –
27 | G80I | 0.0676 | 0.0687 | 0.0405 | 0.0584 | 0.044 | – | – | – | 0.0475 | 0.081 | 0.0503 | 0.0436 | – | 0.0558 | 0.0492 | – | – | 0.0526 | 0.0394
28 | G35E | 0.0463 | 0.045 | – | – | 0.0462 | 0.0654 | 0.0361 | – | – | – | – | – | 0.0412 | 0.0316 | – | – | – | – | 0.0437
29 | V57R | 0.0667 | – | 0.0527 | 0.0452 | 0.0884 | – | – | 0.0553 | 0.0576 | 0.0506 | 0.0435 | – | 0.0664 | 0.0656 | – | – | – | – | 0.0618
